Several values for one entry are separate records, joined by “and”; a condition that tells them apart may be missing. Identical values can stand only once. The inconclusive results got no clear call from the source; some entries with a clear call stand among them for comparison. Where the call is inconclusive, the potency comes from a doubtful curve fit. Where a structure was tested more than once in an assay, its records may differ in their call. Activity calls are given as the source filed them. Calls come from the whole dose curve; as a rule, active = well fitted inhibition curve with a large enough effect in the repeat runs; inconclusive = weak or mixed curves; inactive = no such curve, though single readings can be large or run the other way.
The molecules below were run against Cytochrome P450 2C19 (Homo sapiens) (UniProt P33261) (assay: Cytochrome P450 Family 2 Subfamily C Member 19 (CYP2C19) small molecule antagonists: luciferase reporter qHTS assay (AID 1671197; note: nearly all actives have a fitted effect of over 65% in size)). Conditions: P450-Glo CYP2C19 enzyme, luciferin luminescence, 1 h; series mostly up to 115 µM.
Outline: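 Inhibition of CYP2C19 was scored from loss of luminescence in a P450-Glo proluciferin substrate assay, NADPH-started and run 1 h at 37C, with ketoconazole as positive control.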
Potency is the fitted concentration of half-maximal effect; tags give direction and shape of the fitted curve.

Chain of UniProt P33261 (P33261 whole entry, looked up): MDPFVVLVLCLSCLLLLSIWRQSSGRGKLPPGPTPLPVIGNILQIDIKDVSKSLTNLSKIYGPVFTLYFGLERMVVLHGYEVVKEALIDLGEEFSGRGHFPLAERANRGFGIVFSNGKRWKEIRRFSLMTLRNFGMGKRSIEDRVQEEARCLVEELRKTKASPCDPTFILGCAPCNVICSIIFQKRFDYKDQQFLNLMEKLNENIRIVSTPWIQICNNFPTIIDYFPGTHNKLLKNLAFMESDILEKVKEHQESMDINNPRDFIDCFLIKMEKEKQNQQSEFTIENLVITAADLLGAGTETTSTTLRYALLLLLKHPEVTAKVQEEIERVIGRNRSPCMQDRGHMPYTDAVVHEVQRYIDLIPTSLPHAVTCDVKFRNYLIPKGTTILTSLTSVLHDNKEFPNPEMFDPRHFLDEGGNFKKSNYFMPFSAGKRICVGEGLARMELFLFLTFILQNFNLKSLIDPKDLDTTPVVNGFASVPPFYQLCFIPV

Row | Structure (SMILES) | Potency
1 | CCC[CH2][Sn]([CH2]CCC)([O]C(C)=O)[O]C(C)=O | inactive
2 | O=CC(Br)(Br)Br | inconclusive: 89.1 µM [inhibitor, single point]
3 | O=[N+]([O-])c1c(Cl)c(Cl)c(Cl)c(Cl)c1Cl | inconclusive: 79.6 µM [inhibitor, single point]
4 | COC12CC[C@@]3(C[C@@H]1C(C)(O)C(C)(C)C)[C@H]1Cc4ccc(O)c5c4[C@@]3(CCN1CC1CC1)[C@H]2O5 (stereo partly specified) | inconclusive: 88.8 µM [inhibitor, single point]
5 | Cc1cc(C)c(C2=C(OC(=O)CC(C)(C)C)C3(CCCC3)OC2=O)c(C)c1 | inconclusive: 83.4 µM [inhibitor, single point]
6 | CCCC[P+](CC)(CCCC)CCCC (tested in a mixture with another compound) | inconclusive: 90.1 µM [inhibitor, single point]
7 | c1ccc(NNc2ccccc2)cc1 | inconclusive: 90.2 µM [inhibitor, single point]
8 | O=C(N[C@@H]1N=C(c2ccccc2F)c2cccc3c2N(CC3)C1=O)c1cc2ccccc2[nH]1 | inconclusive: 43.6 µM [inhibitor, single point]
9 | O=C(Nc1ccc(Br)cc1)c1cc(Br)cc(Br)c1O | inconclusive: 7.07 µM [inhibitor, partial curve, poor fit] and inactive
10 | CCCCCCCCCCCCCCC(Br)C(=O)O (stereo unspecified) | inactive
11 | COP(=O)(OC)OC=C(Cl)Cl | inconclusive: 90.3 µM [inhibitor, single point] and inconclusive: 43.4 µM [inhibitor, single point] and inactive
12 | Oc1cc(Cl)c(Cl)cc1Cl | inactive and inconclusive: 89.4 µM [inhibitor, single point]
13 | O=c1ssc(Cl)c1Cl | inconclusive: 89.4 µM [inhibitor, single point]
14 | COC(=O)C(c1ccccc1)C1CCCCN1 (stereo unspecified) | inconclusive: 79.7 µM [inhibitor, single point]
15 | COC(=O)c1sccc1S(=O)(=O)NC(=O)Nc1nc(C)nc(OC)n1 | inconclusive: 71 µM [inhibitor, single point]
16 | CCCCNC(=O)n1c(NC(=O)OC)nc2ccccc21 | inconclusive: 89.4 µM [inhibitor, single point]
17 | COP(=S)(OC)Oc1ccc([N+](=O)[O-])cc1Cl | active: 39.9 µM
18 | N#CC(Cl)Cl | inconclusive: 54.9 µM [inhibitor, partial curve, poor fit]
19 | O=C(O)c1ccc2[nH]cc(CCCCN3CC=C(c4ccccc4)CC3)c2c1 | inactive
20 | C[C@]12Cc3cn[nH]c3C[C@@H]1CC[C@@H]1[C@@H]2CC[C@@]2(C)[C@H]1CC[C@]2(C)O | active: 0.776 µM
21 | N#CSCSC#N | inconclusive: 88.5 µM [inhibitor, single point]
22 | O=c1c(C2CC(c3ccc(-c4ccc(Br)cc4)cc3)Cc3ccccc32)c(O)sc2ccccc12 (stereo unspecified) | inconclusive: 15.5 µM [inhibitor, single point]
23 | CCOC(=O)c1ccccc1C(=O)OCC | inconclusive: 81 µM [inhibitor, single point] and inconclusive: 89.4 µM [inhibitor, single point]
24 | CCCCCCCCCCCCCCCC[N+](C)(C)C | inconclusive: 43.2 µM [inhibitor, single point]
25 | Cl[C@H]1OCCO[C@@H]1Cl | inconclusive: 87.4 µM [inhibitor, single point] and inconclusive: 79.6 µM [inhibitor, single point]
26 | CC(=O)C(Cl)Cl | inactive

These molecules were tested against Cytochrome P450 2C9 (Homo sapiens) (UniProt P11712) (assay: Cytochrome P450 Family 2 Subfamily C Member 9 (CYP2C9) small molecule antagonists: luciferase reporter qHTS assay (AID 1671198; note: nearly all actives have a fitted effect of over 50% in size)). Conditions: P450-Glo CYP2C9 enzyme assay, luciferin luminescence; series mostly up to 115 µM.
Outline: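 CYP2C9 activity was measured with a P450-Glo proluciferin substrate. Enzyme–substrate mix was held with compound for 10 min at room temperature, then NADPH regeneration solution was added for 1 h at 37C. Luciferin product was read as luminescence.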

Chain of UniProt P11712 (P11712 whole entry, looked up): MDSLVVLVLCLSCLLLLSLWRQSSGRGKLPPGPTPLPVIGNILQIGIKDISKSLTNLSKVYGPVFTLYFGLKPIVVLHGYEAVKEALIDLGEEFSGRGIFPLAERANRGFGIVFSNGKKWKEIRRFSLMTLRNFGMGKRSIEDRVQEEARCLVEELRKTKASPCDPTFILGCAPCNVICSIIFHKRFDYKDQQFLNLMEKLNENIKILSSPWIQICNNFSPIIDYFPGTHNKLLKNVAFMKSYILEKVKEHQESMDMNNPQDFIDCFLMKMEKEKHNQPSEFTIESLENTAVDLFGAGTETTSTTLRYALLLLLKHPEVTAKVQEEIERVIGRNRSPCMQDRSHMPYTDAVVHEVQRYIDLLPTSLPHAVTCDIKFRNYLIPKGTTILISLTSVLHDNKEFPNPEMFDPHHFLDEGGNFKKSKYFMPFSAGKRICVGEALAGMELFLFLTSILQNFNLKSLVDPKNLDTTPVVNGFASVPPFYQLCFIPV

Row | Structure (SMILES) | Potency
27 | NNC(N)=S | inconclusive: 41.5 µM [inhibitor, partial curve] and inconclusive: 35.6 µM [inhibitor, full curve]
28 | CC[C@H]1C[C@@H]2C[C@H]3c4[nH]c5ccc(OC)cc5c4CCN(C2)[C@@H]13 | inconclusive: 35 µM [inhibitor]
29 | O=[N+]([O-])c1c(Cl)c(Cl)c(Cl)c(Cl)c1Cl | inconclusive: 89.4 µM [inhibitor, single point]
30 | COC12CC[C@@]3(C[C@@H]1C(C)(O)C(C)(C)C)[C@H]1Cc4ccc(O)c5c4[C@@]3(CCN1CC1CC1)[C@H]2O5 (stereo partly specified) | inconclusive: 39.7 µM [inhibitor, partial curve, poor fit]
31 | Cc1cc(C)c(C2=C(OC(=O)CC(C)(C)C)C3(CCCC3)OC2=O)c(C)c1 | inconclusive: 74.4 µM [inhibitor, partial curve]
32 | CCCCCCCCCCCCCCC(Br)C(=O)O (stereo unspecified) | inconclusive: 71 µM [inhibitor, partial curve]
33 | N#CC(Cl)Cl | inconclusive: 69.1 µM [inhibitor]
34 | N#CSCSC#N | active: 32.4 µM and active: 35.2 µM
35 | CCOC(=O)c1ccccc1C(=O)OCC | inconclusive: 57.3 µM [inhibitor, partial curve] and inconclusive: 79.6 µM [inhibitor, partial curve, poor fit]
36 | CCCCCCCCCCCCCCCC[N+](C)(C)C | inactive and inconclusive: 89.4 µM [inhibitor, single point]

From PubChem BioAssay (Tox21)
